Experimental data: PubChem BioAssay AID1346378 (National Center for Advancing Translational Sciences (NCATS), 2018)
Where “and” joins values, the source holds several entries; their conditions need not be identical. Identical values can stand only once. Among all 420,000 compounds or so, about 540 (0.13%) were called active. Inconclusive results, whose numbers are uncertain, are shown with a selection of clear calls. No stated cut-off is given here; in the data, active means activity change below about -50%; inconclusive means mostly about -30% to -49%; inactive means weaker than that.

Target: Phosphatidylinositol 4-kinase type 2-alpha (Homo sapiens) (UniProt Q9BTU6)
Sequence of UniProt Q9BTU6 (Q9BTU6 whole entry, looked up): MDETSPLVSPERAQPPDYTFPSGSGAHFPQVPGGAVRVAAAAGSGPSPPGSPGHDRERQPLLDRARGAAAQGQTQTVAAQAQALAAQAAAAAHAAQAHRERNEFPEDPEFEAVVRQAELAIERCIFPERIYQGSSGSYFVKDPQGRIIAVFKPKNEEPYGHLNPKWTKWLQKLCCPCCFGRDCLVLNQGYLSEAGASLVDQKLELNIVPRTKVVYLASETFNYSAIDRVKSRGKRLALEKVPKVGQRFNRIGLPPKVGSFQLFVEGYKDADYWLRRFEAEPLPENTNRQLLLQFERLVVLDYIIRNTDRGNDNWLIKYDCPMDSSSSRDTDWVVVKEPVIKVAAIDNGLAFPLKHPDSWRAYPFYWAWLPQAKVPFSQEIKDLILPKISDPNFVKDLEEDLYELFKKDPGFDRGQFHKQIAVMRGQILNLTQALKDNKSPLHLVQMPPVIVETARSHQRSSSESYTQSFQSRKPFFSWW
Assay: qHTS for small molecular inhibitors of PI4K2A;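 further: -100% = wells without enzyme as full effect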
Details: purified PI4K2A, ADP-Glo luminescence, 1 h; at 76.9 µM, active compounds read low
Description: The phosphatidylinositol 4-phosphate (PI4P) is emerging as a key regulator of lipid transfer in ER-membrane contact sites. The four different phosphatidylinositol 4-kinase (PI4K) enzymes generate PI4P in different membrane compartments supporting distinct cellular processes many of which are crucial for the maintenance of cellular integrity but also hijacked by intracellular pathogens. The goal of this screening project is to search for small molecular inhibitors of PI4K2A based on a high throughput screening strategy.The ADP-Glo assay was used as a starting point to develop a miniaturized version for HTS applications. To implement the HTS screen, the PI4K ADP-Glotrade mark Kinase assay (Promega, V9102) was miniaturized for the 1536-well format used at NCGC.
For the robotic screening, the ADP-Glo assay using the ADP-Glotrade mark Kinase Assay kit from Promega was miniaturized and optimized on 1536-well white solid bottom plates (Greiner Bio-one). The substrate, 1.2 mM PI, prepared in the assay buffer (40mM Tris pH7.5, 20mM MgCl2, 1mM EGTA, 0.4% Triton X-100, 0.5mM DTT, 0.5mg/ml BSA) and PI4K2A enzyme, diluted also in the assay buffer to 4ug/mL, were dispensed onto the plates in equal volumes (1microl/well), pinned with 23 nL/well tested compounds or control followed by dispensation of 1microl/well 300microM ATP. The plates were incubated for one hour. Then, 2 µL/well of ADP-Glo reagent was added and incubated for 40 minutes. Next, 4microL/well of Kinase Detection Buffer was added to the plates and incubated for additional 40 minutes. All incubation steps were performed at ambient temperature. The resulting luminescence signal was measured on Viewlux plate reader (PerkinElmer). Adenosine, a partial non-specific inhibitor, was used as a positive control at 100microM final concentration to assess the assay's quality and plate-to-plate reproducibility. We also used "no enzyme" control to gauge the assay's maximal potential inhibition (IC100).

Activity change, negative = inhibition, inactive:
CCOc1ccc(CCNC(=O)c2cc3c(-c4ccc(OC)c(OC)c4)nn(C)c3s2)cc1OCC -6.35%
CCc1ccc(OCC2c3cc(OC)c(OC)cc3CCN2C(=O)COc2ccccc2)cc1 (stereo not given) 3.14%
Cc1ccc(S(=O)(=O)Nc2ccc3c(c2)OCCO3)cc1 2%
O=C(NC1CCCCN(Cc2ccc(Cl)cc2)C1=O)C(c1ccccc1)c1ccccc1 (stereo not given) -2.8%
Fc1cc(F)c(CSc2nnc(-c3cccnc3)n2Cc2ccccc2)cc1F -4.29%
COc1ccc(-n2cc(-c3ccccc3)c3c(N4CCOCC4)ncnc32)cc1 3.15%
CCC1(C)Cc2ccccc2-c2nc(NN)[nH]c(=O)c21 (stereo not given) 0.269%
CC(C)CC(=O)Nc1ccc(C(=O)Cn2c(=O)oc3ccccc32)cc1 -3.93%
CC(C(=O)NCC(=O)Nc1ccc(F)c(F)c1F)N1CCN(c2ccc(O)cc2)CC1 (stereo not given) -4.63%
CC(C)c1[nH]nc2c1C1(CCN(Cc3ccccc3)CC1)C(C#N)=C(N)O2 -3.59%
COc1ccc(S(=O)(=O)NCCc2sc(-c3ccccc3)nc2C)cc1OC -1.42%
Cc1ccc(NC(=O)CCCN2C(=O)/C(=C/C=C/c3ccccc3)SC2=S)cc1 9.06%
O=C(Nc1cccnc1Cl)c1ccc(=O)oc1 -9.86%
CCCCC(=O)Nc1ccc(C(=O)NNC(=O)CCc2ccccc2)cc1 0.888%
Oc1cc(O)c2c(c1)O[C@H](c1ccc(O)c(O)c1)[C@H](O)C2 -2.65% and 0.781%
COc1ccc(Cn2c(SCc3ccc(C(=O)NC4CCCC4)cc3)nc3ccncc32)cc1 2.44%
Brc1cccc(C2Nc3cccc4cccc(c34)N2)c1 -4.59%
Cn1c(=O)[nH]c(=O)c2c1nc(SCCN1CCCCC1)n2Cc1ccccc1 -4.24%
COc1ccc(Cl)c2c1[nH]c1nc(SCc3ccccn3)nnc12 -3.4%
CC(=O)c1cccc(OCC(=O)c2cc(C)n(-c3cc(C)on3)c2C)c1 4.98%
O=C(COC(=O)c1cc(S(=O)(=O)N2CCCC2)ccc1O)NCc1ccccc1 0.852%
CC(=O)c1ccc(NC(=O)C(C)N(C)CC(=O)Nc2ccc(N3CCOCC3)cc2)cc1 (stereo not given) 1.64%
Cc1c(C(=O)NNC(=S)Nc2cccc(Cl)c2)nnn1-c1ccccc1 0.147%
COc1ccc(C(=O)N/C(=C\c2cccc([N+](=O)[O-])c2)C(=O)Nc2cccc(C(=O)O)c2)cc1 -0.64%
N#Cc1ccsc1NC(=O)CSc1nnnn1-c1ccc(O)cc1 -10.4%
O=C(Nc1ccc(-c2nnc3n2CCCCC3)cc1)c1ccco1 7.02%
CN(Cc1ccccc1)C(=O)c1cc2c(s1)-c1ccc(Cl)cc1SC2 -4.64%
COc1ccc(CN2CCN(Cc3c[nH]c4ccccc34)CC2)cc1 -0.831%
Cc1ccc(C)c(OCCC(=O)Nc2cccc(S(=O)(=O)N3CCCCC3)c2)c1 40.6%
COC(=O)CSc1nc2c(c(-c3ccc(O)cc3)c1C#N)CCCC2 6.46%
Cc1csc(CNc2ncnc3ccc(-c4ccc5c(c4)OCCO5)cc23)c1 -1.61%
COc1ccc(CC(=O)NCCN2CCOCC2)cc1 4.49%

Activity change, negative = inhibition, active:
COc1ccc(NC(=O)CSc2nc(NS(=O)(=O)c3ccccc3)cc(=O)[nH]2)cc1 -52.8%
COc1cc(C=C2C(=O)C=CC2=O)ccc1O -56.3%
Cc1ccc2nc(-c3ccccc3)cn2c1 -69.7%
CCOC(=O)C1=C(C)OC2(O)c3ccccc3C(=O)C12O (stereo not given) -52.4%
CC(c1ccccc1)c1nnc(NC(=O)Nc2ccccc2F)s1 (stereo not given) -50%
CCCSc1ccc2nc(-c3ccccc3)cn2c1 -67.5%
COc1ccc(-c2nc3ccccn3c2Cl)cc1 -51.7%
CCOc1ccc(-c2cn3ccccc3n2)cc1 -52%
N#C/C(=C\c1ccc(-c2cc(Cl)ccc2Cl)o1)C(=O)Nc1cccc2ncccc12 -52.8%
CCOc1ccc(OCc2cccc(C(=O)O)c2)cc1 -58.1%
O=C1C(=Cc2ccc(F)cc2)CCc2ccccc21 -72.8%
O=Cc1ccc2oc3nc4n(c(=O)c3c(=O)c2c1)CCCS4 -61.7%
CC1=NN(c2cccc([N+](=O)[O-])c2)C(=O)C1 -50.4%
Cc1occc1C(=O)N/N=C/c1ccc2c(c1)OCO2 -65.3%
CN(CCC#N)C(=O)COC(=O)c1c2c(nc3ccccc13)/C(=C/c1ccco1)CC2 -52.7%
CCOc1ccc2nc(NC(=O)c3ccoc3C)sc2c1 -83.4%

Activity change, negative = inhibition, inconclusive:
Cc1ccc(C(=O)O)cc1N1C(=O)c2cccc3c([N+](=O)[O-])ccc(c23)C1=O -35.5%
COc1cc(OC)c2c(O)c3c(c(-c4c5c(c(O)c6c(OC)cc(OC)cc46)CO[C@@H](C)[C@H]5O)c2c1)[C@H](O)[C@H](C)OC3 -30.9%
COc1cc(C=c2c3ccccc3n3c2cc(-c2ccccc2)[n+]3C)cc(OC)c1OC -31.5%
Nc1ncnc2c1ncn2[C@@H]1O[C@H](C(=O)N[C@@H](CO)c2ccccc2)[C@@H](O)[C@H]1O -32.7%
O=C1C(NS(=O)(=O)c2ccc(Br)cc2)=C(N2CCCCC2)C(=O)c2ccccc21 -31.8%
COc1ccccc1Nc1nc(-c2sc(NC(=O)c3ccccc3)nc2C)cs1 -47.6%
N#Cc1cc2c(=O)n3ccccc3nc2n(Cc2ccco2)c1=NC(=O)c1ccco1 -30.6%
CC(=O)NC1=NN(c2ccccc2)C(=O)C1 -37.8%
COc1ccccc1N1CCN(C(=O)c2noc(C(C)C)c2[N+](=O)[O-])CC1 -33.3%
NC(=O)CSc1nc2scc(-c3ccco3)c2c(=O)n1-c1ccccc1 -43.7%
O=c1ccc2cc(O)c(O)cc2o1 -32.9%
O=C1C=CC(O)(c2cc(=O)c3c(O)cc(O)cc3o2)C=C1 -48.8%
COc1cccc(-c2ccc3nnc(SCC(=O)Nc4ccc(NC(C)=O)cc4)n3n2)c1 -44.2%
Cc1ccc(Nc2nc(-c3sc(NC(=O)c4ccccc4)nc3C)cs2)cc1 -42.6%
CCOc1ccc(S(=O)(=O)Nc2cc(SCC(=O)O)c(O)c3ccccc23)cc1 -48.6%
Cc1nnc(N/N=C/c2ccco2)n1N -38.5%
C=CCn1c(SCC(=O)NCCCC)nc2scc(-c3ccco3)c2c1=O -48.3%
COc1ccc(C(=O)Nc2ccccc2C(=O)N/N=C/c2ccccc2OC)cc1 -34.5%
CCOC(=O)c1cc2c(C)[nH]c(C)c2cc(C(=O)OCC)c1=O -37%
CN(C)c1ccc(N=Nc2nccs2)cc1 -30.5%
c1ccc(-c2ccc3ncccc3n2)cc1 -31.3%
COCCCNC(=S)Nc1cccc2ncccc12 -37.7%
Cc1ccc(C(=O)Nc2c(-c3ccccc3)[nH][nH]c2=O)cc1 -35%
O=C(Nc1ccc2nc(-c3ccco3)c(-c3ccco3)nc2c1)N1CCN(c2ccccn2)CC1 -39.3%
O=C(Nc1ccc(F)cc1F)c1ccc2c(c1)OCCO2 -46.8%
COc1ccc(NC(=S)Nc2ccc3nsnc3c2)cc1 -37.5%
COc1ccccc1NC(=O)/C(C#N)=C/C=C/c1ccco1 -48.5%
Cc1cc(NC(=O)Cc2cccs2)no1 -32.5%
Cc1ccc(S(=O)(=O)/N=C2\C=C(Nc3cccc(C(=O)O)c3)C(=O)c3ccccc32)c(C)c1 -31.5%
CCCCn1nnnc1C1(C)CCC(=O)N1CCCn1ccnc1 (stereo not given) -33.4%
C(=N\Nc1nc2ccccc2[nH]1)/c1ccccn1 -32.7%
Nc1ccc(OC(=O)Nc2ccc(O)cc2)cc1 -45.4%
Nc1c(-c2ccccc2)cnn1-c1ccccc1 -41.6%
O=C1NN(c2ccccc2)C(=O)/C1=C\c1coc2ccc(O)cc2c1=O -30.3%
COc1ccc(-n2ncc3c(N4CCCCC4)ncnc32)cc1 -34.3%
COc1cc(N(C)C)ccc1C=c1c2ccccc2n2c1cc(-c1ccccc1)[n+]2C -30.4%
CCc1nnc(N/N=C/c2ccc(N3CCC(C)CC3)c([N+](=O)[O-])c2)n1N -32.1%
COc1cccc(C(=O)OCC(=O)Nc2ccc(N3CCOCC3)cc2)c1 -34.3%
CCN(CCCNc1cc2c(c(N)c1S(=O)(=O)O)C(=O)c1ccccc1C2=O)c1ccccc1 -40.2%
CN(Cc1ccsc1)C(=O)Cn1cc(Br)ccc1=O -42.6%
C[C@](N)(Cc1ccc(O)c(O)c1)C(=O)O -34.6% and -46.1%
CSc1nnc(NC(=O)c2nc(S(=O)(=O)Cc3ccc(C)cc3)ncc2Cl)s1 -34.6%
